Laboratory results taken from patent publication US20190309059A1.

How the values were obtained:
[1] = target: his-labeled human IL-13 (immunogen A) (human) (UniProt P35225); experiment: FACS blocking, biotin-IL-13 on IL-13Ra1/IL-4Ra HEK293 cells; antibody at 1.33 nM
[2] = target: his-labeled human IL-13 (immunogen A) (human) (UniProt P35225); experiment: FACS blocking, biotin-IL-13 on IL-13Ra1/IL-4Ra HEK293 cells; antibody at 33.33 nM
[3] = target: his-labeled human IL-13 (immunogen A) (human) (UniProt P35225); experiment: FACS blocking, biotin-IL-13 on IL-13Ra2 HEK293 cells; antibody at 6.67 nM
[4] = target: his-labeled human IL-13 (immunogen A) (human) (UniProt P35225); experiment: FACS blocking, biotin-IL-13 on IL-13Ra2 HEK293 cells; antibody at 1.33 nM
[5] = target: his-labeled human IL-13 (immunogen A) (human) (UniProt P35225); experiment: FACS blocking, biotin-IL-13 on IL-13Ra2 HEK293 cells; antibody at 0.27 nM
[6] = target: his-labeled human IL-13 (immunogen A) (human) (UniProt P35225); experiment: FACS blocking, biotin-IL-13 on IL-13Ra1/IL-4Ra HEK293 cells; antibody at 166.67 nM
[7] = target: his-labeled human IL-13 (immunogen A) (human) (UniProt P35225); experiment: ELISA, biotin-immunogen A; antibody at 0.004 nM
[8] = target: his-labeled human IL-13 (immunogen A) (human) (UniProt P35225); experiment: cell-based or functional assay
[9] = target: his-labeled human IL-13 (immunogen A) (human) (UniProt P35225); experiment: ELISA, biotin-immunogen A; antibody at 2.7 nM
[10] = target: his-labeled human IL-13 (immunogen A) (human) (UniProt P35225); experiment: ELISA, biotin-immunogen A; antibody at 0.53 nM
[11] = target: his-labeled human IL-13 (immunogen A) (human) (UniProt P35225); experiment: FACS blocking, biotin-IL-13 on IL-13Ra2 HEK293 cells; antibody at 0.05 nM
[12] = target: his-labeled human IL-13 (immunogen A) (human) (UniProt P35225); experiment: FACS blocking, biotin-IL-13 on IL-13Ra2 HEK293 cells; antibody at 0.01 nM
[13] = target: his-labeled human IL-13 (immunogen A) (human) (UniProt P35225); experiment: FACS blocking, biotin-IL-13 on IL-13Ra2 HEK293 cells; antibody at 33.33 nM
[14] = target: his-labeled human IL-13 (immunogen A) (human) (UniProt P35225); experiment: FACS blocking, biotin-IL-13 on IL-13Ra1/IL-4Ra HEK293 cells; antibody at 0.002 nM
[15] = target: his-labeled human IL-13 (immunogen A) (human) (UniProt P35225); experiment: ELISA, biotin-immunogen A; antibody at 0.11 nM
[16] = target: his-labeled human IL-13 (immunogen A) (human) (UniProt P35225); experiment: FACS blocking, biotin-IL-13 on IL-13Ra1/IL-4Ra HEK293 cells; antibody at 6.67 nM
[17] = target: his-labeled human IL-13 (immunogen A) (human) (UniProt P35225); experiment: ELISA, biotin-immunogen A; antibody at 0.021 nM
[18] = target: his-labeled human IL-13 (immunogen A) (human) (UniProt P35225); experiment: FACS blocking, biotin-IL-13 on IL-13Ra1/IL-4Ra HEK293 cells; antibody at 0.05 nM
[19] = target: his-labeled human IL-13 (immunogen A) (human) (UniProt P35225); experiment: FACS blocking, biotin-IL-13 on IL-13Ra2 HEK293 cells; antibody at 0.002 nM
[20] = target: his-labeled human IL-13 (immunogen A) (human) (UniProt P35225); experiment: ELISA: biotin-labeled immunogen A on streptavidin plate, antibody titrated, HRP secondary antibody, OD450
[21] = target: his-labeled human IL-13 (immunogen A) (human) (UniProt P35225); experiment: ELISA, biotin-immunogen A; antibody at 13.3 nM
[22] = target: his-labeled human IL-13 (immunogen A) (human) (UniProt P35225); experiment: ELISA, biotin-immunogen A; antibody at 67 nM
[23] = target: his-labeled human IL-13 (immunogen A) (human) (UniProt P35225); experiment: FACS blocking, biotin-IL-13 on IL-13Ra2 HEK293 cells; antibody at 166.67 nM
[24] = target: his-labeled human IL-13 (immunogen A) (human) (UniProt P35225); experiment: FACS blocking, biotin-IL-13 on IL-13Ra1/IL-4Ra HEK293 cells; antibody at 0.01 nM
[25] = target: his-labeled human IL-13 (immunogen A) (human) (UniProt P35225); experiment: FACS blocking, biotin-IL-13 on IL-13Ra1/IL-4Ra HEK293 cells; antibody at 0.27 nM
[26] = target: his-labeled human IL-13 (immunogen A) (human) (UniProt P35225); experiment: ELISA, biotin-immunogen A; antibody at 333 nM
[27] = target: his-labeled human IL-13 (immunogen A) (human) (UniProt P35225); experiment: FACS inhibition of IL-13 on hIL-13Ra1/hIL-4Ra 293 cells; phage supernatant 1:5
[28] = target: his-labeled human IL-13 (immunogen A) (human) (UniProt P35225); experiment: FACS inhibition of IL-13 on hIL-13Ra1/hIL-4Ra 293 cells; phage supernatant 1:1
[29] = target: his-labeled human IL-13 (immunogen A) (human) (UniProt P35225); experiment: FACS inhibition of IL-13 on hIL-13Ra2 293 cells; phage supernatant 1:10
[30] = target: his-labeled human IL-13 (immunogen A) (human) (UniProt P35225); experiment: FACS inhibition of IL-13 on hIL-13Ra2 293 cells; phage supernatant 1:100
[31] = target: his-labeled human IL-13 (immunogen A) (human) (UniProt P35225); experiment: FACS inhibition of IL-13 on hIL-13Ra1/hIL-4Ra 293 cells; phage supernatant 1:25

B1: hP4_4H12 (fully human IL-13 antibody) (antibody, V domains shown)
VH: EVQLVETGGGVVQPGRSLRLSCAASGFTFSSYAMHWVRQAPGKGLEWVAVISYDGSNKYYADSVKGRFTISRDNSKNTLYLQMNSLRAEDTAVYYCARDPVGYCSGGSCYYYGMDVWGQGTTVTVSS
VL: EIVMTQSPATLSLSPGERATLS[about 80 residues omitted here]TFGLGTKVVIK
[1]
  mean fluorescence intensity: 47.8
[2]
  mean fluorescence intensity: 21.9
[3]
  mean fluorescence intensity: 75.5
[4]
  mean fluorescence intensity: 72.2
[5]
  mean fluorescence intensity: 56.8
[6]
  mean fluorescence intensity: 19.6
[7]
  OD450 nm: 0.09
[8]
  TARC (pg/mL), A549 cells + IL-13 + TNFα; antibody at 0.004 nM: 2460 pg/mL
  TARC (pg/mL), A549 cells + IL-13 + TNFα; antibody at 0.021 nM: 2760 pg/mL
  TARC (pg/mL), A549 cells + IL-13 + TNFα; antibody at 0.11 nM: 2760 pg/mL
  TARC (pg/mL), A549 cells + IL-13 + TNFα; antibody at 0.5 nM: 2590 pg/mL
  TARC (pg/mL), A549 cells + IL-13 + TNFα; antibody at 2.7 nM: 2530 pg/mL
  TARC (pg/mL), A549 cells + IL-13 + TNFα; antibody at 13.3 nM: 1350 pg/mL
  TARC (pg/mL), A549 cells + IL-13 + TNFα; antibody at 66.7 nM: 339 pg/mL
[9]
  OD450 nm: 3.09
[10]
  OD450 nm: 2.1
[11]
  mean fluorescence intensity: 51.8
[12]
  mean fluorescence intensity: 48.4
[13]
  mean fluorescence intensity: 59.1
[14]
  mean fluorescence intensity: 62.1
[15]
  OD450 nm: 0.69
[16]
  mean fluorescence intensity: 32.6
[17]
  OD450 nm: 0.2
[18]
  mean fluorescence intensity: 58.4
[19]
  mean fluorescence intensity: 51.2
[20]
  EC50 (read off the curve): 0.4 nM
[21]
  OD450 nm: 3.61
[22]
  OD450 nm: 3.55
[23]
  mean fluorescence intensity: 49.7
[24]
  mean fluorescence intensity: 59
[25]
  mean fluorescence intensity: 55.4
[26]
  OD450 nm: 3.57

B2: P4_4H12 (phage clone, lead antibody from the phage ScFv antibody library) (scFv, V domains shown)
VH: EVQLVETGGGVVQPGRSLRLSCAASGFTFSSYAMHWVRQAPGKGLEWVAVISYDGSNKYYADSVKGRFTISRDNSKNTLYLQMNSLRAEDTAVYYCARDPVGYCSGGSCYYYGMDVWGQGTTVTVSS
VL: EIVMTQSPATLSLSPGERATLS[about 80 residues omitted here]TFGLGTKVVIK
[27]
  inhibition rate: 71.7%
[28]
  inhibition rate: 88.7%
[29]
  inhibition rate: -6.9%
[30]
  inhibition rate: -5.6%
[31]
  inhibition rate: 30.8%
